According to PubChem BioAssay AID624418 (National Center for Advancing Translational Sciences (NCATS), 2012):
Screen size: about 410,000 compounds; about 530 (0.13%) were called active. The shares of active, inactive and inconclusive entries below differ from those in the screen. The call rests on the fitted dose curve; in most records, active means well fitted inhibition curve with a large enough effect; inconclusive means small, poorly fitted or top-dose-only effect, or another doubt; inactive means no such curve, though single readings can be large or run the other way. Potencies of inconclusive entries are doubtful fits and often do not repeat.

Assay: qHTS of GLP-1 Receptor Inverse Agonists: Cytotox Screen
Settings: HEK293 cAMP-luciferase reporter cells, luminescence, 24 h; series mostly up to 38.3 µM
Procedure, shortened: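 Step one: seed cells (200 cells/uL, DMEM with 10% Nu serum, 1% pen-strep). Step two: 12-hour incubation at 37 deg C. Step three: pin 23 nL compound, incubate 24 hr. Step four: add luciferase reagent, read luminescence 12 min later.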
Potency means the concentration at half of the fitted maximal effect.

Compound | Potency
CCN(Cc1nc2cc(Cl)ccc2c(=O)[nH]1)C(=O)c1ccc(C)c(NC(=O)c2ccco2)c1 | inconclusive: 12.6 µM [inhibitor, single point]
O=C(COC(=O)c1cccc(Cl)c1)NCCN1C(=O)CSC1=O | inconclusive: 31.6 µM [inhibitor, partial curve, poor fit]
CCN(CC)c1ccc(NC(=O)c2ccccc2F)cc1 | inconclusive: 31.6 µM [inhibitor, single point]
CC1(C(=O)NCc2ccco2)Cc2c(-c3ccc(C(N)=O)cc3)ccnc2O1 (centres undefined) | inconclusive: 7.94 µM [inhibitor, partial curve, poor fit]
Cc1cc(C)cc(-c2nnc(SCC(=O)Nc3cc(C)on3)o2)c1 | inconclusive: 12.6 µM [inhibitor, partial curve, poor fit]
COC(=O)c1ccc(-c2ccco2)n1Cc1ccccc1Cl | inactive
CCOC(=O)c1ccccc1C(=O)N1CCOCCOCCOCC1 | inconclusive: 12.6 µM [inhibitor, single point]
Cc1nc(NC(=O)/C=C/c2ccccc2)sc1C(=O)Nc1ccc(Cl)cc1 | inconclusive: 8.91 µM [inhibitor, partial curve]
CCOc1cc(CNCCc2ccc(S(N)(=O)=O)cc2)ccc1OCC(=O)NC1CCCCC1 | inconclusive: 11.2 µM [inhibitor, partial curve, poor fit]
CCCCOc1ccccc1C(=O)N(Cc1ccco1)C1CCS(=O)(=O)C1 (centres undefined) | inactive
N#Cc1ccccc1OCCCN1CCC(Cc2ccccc2)CC1 | inconclusive: 28.2 µM [inhibitor, single point]
O=S(=O)(c1cccc(NC(=S)N2CCN(c3cccc(Cl)c3)CC2)c1)C(F)F | inconclusive: 10 µM [inhibitor, single point]
CC(C)CCCCCCNC(=S)Nc1ccc(S(=O)(=O)N2CCOCC2)cc1 | inconclusive: 28.2 µM [inhibitor, single point]
CCn1cc(C(=O)NCCc2ccc(OC)c(OC)c2)c(=O)c2cc(S(=O)(=O)N3CCOCC3)ccc21 | inconclusive: 4.47 µM [inhibitor, partial curve, poor fit]
Cc1ccc(CNC(=S)Nc2ccc(NS(=O)(=O)c3ccc(C)cc3)cc2)cc1 | inconclusive: 12.6 µM [inhibitor, single point]
O=C(NC(=S)NCCc1ccccc1)c1ccccc1 | inconclusive: 35.5 µM [inhibitor, partial curve, poor fit]
Cc1ccc(-c2noc(C(C)NC(=O)c3ccco3)n2)cc1 (centres undefined) | inactive
COc1ccc(S(=O)(=O)c2c(SC)nn(CC(=O)Nc3ccc(C)c(Cl)c3)c2N)cc1 | inactive
O=C(CSc1nnc2ccccn12)Nc1ncc(Cl)cc1Cl | inactive
COc1cccc(N2CCN(C(=O)CNC(=O)c3sc4ccccc4c3Cl)CC2)c1 | inconclusive: 28.2 µM [inhibitor, single point]
COCCCNC(=O)CSc1nc2cc3c(cc2c(=O)n1CCCCCC(=O)NCCc1ccc(OC)c(OC)c1)OCO3 | inactive
O=C1CC(C(F)(F)C(F)(F)C(F)(F)C(F)F)=Nc2ccccc2N1 | inconclusive: 0.501 µM [inhibitor, full curve, poor fit]

Compound | Potency
CCOC(=O)c1ccc(NC(=S)NN)cc1 | inactive
CCCCSc1c(C)c2cc3c(cc2[nH]c1=O)OCO3 | inconclusive: 2 µM [inhibitor, full curve, poor fit]
COc1cccc(-c2csc(N3CCN(C(=S)Nc4cccc(Cl)c4)CC3)n2)c1 | inactive
O=C(NCc1ccc(F)cc1)c1ccc2c(c1)N(Cc1c(F)cccc1Cl)C(=O)CS2 | inactive
CCCc1ccc(S(=O)(=O)N2CCN(C(C)C(=O)NCc3ccc(OC)cc3)CC2)cc1 (centres undefined) | inactive
CC1=C(c2ccc(C)cc2)S(=O)(=O)N(Cc2ccc(C(=O)NCc3ccccc3)cc2)C1=O | inactive
O=C(Nc1cc(C(F)(F)F)ccc1Cl)c1noc2c1CCCCC2 | inactive
CCOC(=O)c1[nH]c(C)c(CCC(=O)Nc2ccccc2OCC)c1C | inactive
CC(C)(C)NC(=O)C(c1c[nH]c2ccccc12)N(C(=O)Cn1nnc(-c2ccc(F)cc2)n1)c1cccc(O)c1 (centres undefined) | inconclusive: 31.6 µM [inhibitor, partial curve, poor fit]
COc1cccc(C(=O)N/N=C(\C)c2cccc(NC(=O)c3ccc(F)cc3)c2)c1OC | inconclusive: 28.2 µM [inhibitor, single point]
CCCCc1ccc(NC(=O)Nc2c(C)n(C)n(-c3ccccc3)c2=O)cc1 | inconclusive: 7.94 µM [inhibitor, partial curve, poor fit]
O=C(Nc1ncc(Cc2cccc(Cl)c2)s1)c1cccs1 | inconclusive: 14.1 µM [inhibitor, single point]
CC1=NN(C2=NS(=O)(=O)c3ccccc32)C(C)(O)C1 (centres undefined) | inconclusive: 1.58 µM [inhibitor, full curve, poor fit]
O=C(Oc1cccc2cccnc12)c1ccco1 | inconclusive: 5.01 µM [inhibitor, partial curve]
Cc1cc(O)c(C(c2ccccc2)N2CCN(c3ccccc3)CC2)c(=O)n1Cc1ccco1 (centres undefined) | inactive
O=S(=O)(NCc1ccccn1)c1cc(Cl)ccc1Cl | inactive
S=C(Nc1cccc(Cl)c1)Nc1cccc2cnccc12 | inactive
S=c1nc(-c2ccc(Br)cc2)[nH]c2ccccc12 | inactive
Cc1onc(-c2ccccc2)c1C(=O)Nc1ncc([N+](=O)[O-])s1 | inconclusive: 8.91 µM [inhibitor, partial curve, poor fit]
O=C(O)c1cc([N+](=O)[O-])ccc1NCCc1ccccc1 | inconclusive: 7.08 µM [inhibitor, partial curve, poor fit]
COc1ccc(S(=O)(=O)N(Cc2ccccc2)c2ccccc2C(=O)N2CCOCC2)cc1 | inconclusive: 10 µM [inhibitor, single point]
COc1ccccc1NC(=O)CN1CCCCCC1 | inconclusive: 5.62 µM [inhibitor, full curve, poor fit]
